Measurements taken from the supplement of paper PMC3334620.
Whole data set: some 33,000 sequences, median “E-score (-0.5 to 0.5)” near -0.054, cut for the highest 2% near 0.35. The list shows a part of the results.

Each sequence was assayed against T1, Stb5 (UniProt P38699) (assay: PBM E-score (8-mer binding enrichment) (E-score (-0.5 to 0.5)); higher = stronger / more preferred TF binding; most listed sequences are background and not binding sites). Settings: protein concentration: 200 nM; construct: GST-full length.
T1 sequence: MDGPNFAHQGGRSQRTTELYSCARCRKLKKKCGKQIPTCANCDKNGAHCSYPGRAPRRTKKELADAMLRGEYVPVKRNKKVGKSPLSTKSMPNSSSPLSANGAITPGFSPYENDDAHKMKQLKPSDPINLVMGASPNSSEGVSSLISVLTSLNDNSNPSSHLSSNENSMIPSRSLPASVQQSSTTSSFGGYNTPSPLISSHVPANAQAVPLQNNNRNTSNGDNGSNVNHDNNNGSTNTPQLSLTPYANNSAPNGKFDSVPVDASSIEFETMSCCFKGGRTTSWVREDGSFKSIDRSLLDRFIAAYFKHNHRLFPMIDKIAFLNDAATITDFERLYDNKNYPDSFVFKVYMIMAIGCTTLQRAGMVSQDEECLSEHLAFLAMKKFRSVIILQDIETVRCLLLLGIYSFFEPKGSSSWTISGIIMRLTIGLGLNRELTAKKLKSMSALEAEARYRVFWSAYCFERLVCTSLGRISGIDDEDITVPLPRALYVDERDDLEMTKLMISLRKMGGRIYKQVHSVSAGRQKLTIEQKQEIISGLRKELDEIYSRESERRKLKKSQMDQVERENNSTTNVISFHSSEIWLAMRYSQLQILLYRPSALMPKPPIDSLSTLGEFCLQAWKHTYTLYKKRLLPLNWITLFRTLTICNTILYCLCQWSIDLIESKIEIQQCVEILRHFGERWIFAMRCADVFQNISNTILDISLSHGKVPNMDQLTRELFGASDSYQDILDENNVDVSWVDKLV
In short: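 Yeast transcription factors carrying a GST tag, as full-length proteins or DNA-binding domains, were produced by PURExpress in vitro transcription/translation. About 100-200 nM protein was applied to universal all-10-mer Agilent arrays, double-stranded by primer extension on fresh or once-stripped slides. Bound protein was detected with fluorescent anti-GST, and scans were normalised with masliner. The Universal PBM Analysis Suite gave each ungapped eight-base word, pooled with its reverse complement, an E-score, a modified Wilcoxon-Mann-Whitney statistic.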

Sequence | PBM E-score
GCACTGAA | -0.133
TAAGTCTA | -0.0952
CTAACCCA | -0.185
CTTTAGGA | -0.0789
TGTTGAAA | -0.0848
CGGCCCCC | 0.0221
ATGAGCTA | -0.22
AAGCTGTG | -0.187
GGGATTTA | 0.351
GTTAAATA | 0.0556
ACCATCAT | -0.288
GAACGGCA | 0.281
CAGCACGA | -0.2
CACGTAAC | -0.0753
AGTATGTG | -0.0762
GCCGCTAC | 0.39
CCATAACA | 0.0384
AGTCTTAA | -0.0773
ATTGGGTC | -0.0644
GTTGAGTA | -0.00225
CTAGCTAA | -0.168
ACCGCTCG | 0.357

Sequence | PBM E-score
AGCGCGAC | -0.139
CCCAGAAC | -0.156
ATTTCTAA | -0.0632
AATCCTAC | -0.172
ATTCGGCA | 0.179
CATCAAGC | -0.106
AGTCCAGC | -0.223
AACCTTTG | -0.0639
AAGCGTCA | -0.32
GGTTAACC | -0.0109
GGCCGCCC | 0.253
CGATTCCA | -0.0241
AACATTCC | -0.0795
CGAGGTTC | -0.0789
AGGTTACC | 0.108
ATGAAACC | 0.0892
AGTCCCAA | -0.121
CGGAGTTC | 0.326
AATTGTGA | -0.21
AGTCATAC | -0.143
ACCCTACG | -0.0552
ACCGGGAT | 0.323

Sequence | PBM E-score
CGTTCCGA | 0.00452
GCACATCC | -0.0283
ATCCTCTC | -0.286
GGGAGGCA | 0.111
GTCGCAAA | -0.0343
CGTACCCC | 0.00585
ACAAAGAT | -0.329
AGGCTGTA | -0.226
ACATTATC | 0.0703
CTAGGCAG | -0.0998
AATTCCTA | -0.258
GAGTCACA | -0.0801
ACATGGAA | -0.0514
ACACCGGT | 0.421
CCACAACA | -0.182
CGACCAGC | 0.128
ATGTACAA | 0.0239
ACGGTACC | 0.283
ACAATATA | 0.135
CTATGCAA | -0.111
CTCCAGTA | -0.0368
CGCTCCTC | -0.0314

Sequence | PBM E-score
TAACCAGA | -0.245
ACTGCCAT | -0.249
ACTCTGCT | -0.301
CCACACTC | -0.0515
ATGCGAGC | -0.184
ATACAAAA | -0.135
ACACTTTC | -0.101
GCACGTAC | -0.152
CTCTAAGC | 0.0585
GCTGTGTA | -0.146
ACAAAGAC | -0.00636
CCCCCTCA | -0.286
CATAGGGA | -0.0738
CCGAATAG | 0.139
ACCTAGGC | -0.185
CATCAGTC | 0.132
ACGTGGAT | -0.137
ACGCAGTG | -0.148
ACCCCAAC | -0.113
TTCCCGAA | 0.241
